Measured values as given in the supplement of paper PMC11417369.
± gives the standard deviation of the averaged measurements. The list shows a part of the results.

System: PfAP2-EXP AP2 domain (GST-tagged)
Test: gcPBM binding intensity (ln(normalized median fluorescence intensity)); higher = stronger DNA binding
Method in brief: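 Plasmodium falciparum DNA-binding domains carrying a GST tag were expressed in E. coli and applied for 1 h, at about 25 μg on average, to an Agilent 4 × 180k array. The array held primer-extended double-stranded 36-bp intergenic genomic probes together with negative controls, and binding took place in 1× PBS with 1% milk, 0.2 mg/ml BSA, 0.5% salmon testes DNA and 0.03% Triton X-100. An Alexa488 anti-GST antibody detected bound protein, and the array was scanned at 488 nm. Binding intensity is taken as the highest Masliner-normalised natural-log median intensity across replicate spots of either probe orientation.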

| Sequence | gcPBM binding intensity (ln) |
| --- | --- |
| TACAACATATTCAAATGTACAAATATAGGAATGAAA [XGTACX_site2730] | 8.83 ± 0.55 |
| AACATAAAATGGATATGTACATAAAAATATATACTC [XGTACX_site7775] | 8.66 ± 0.26 |
| AGCGTATTATACTGACGTACATTTTATGTAACTCCA [XGTACX_site2715] | 8.27 ± 0.16 |
| CGTTAGAGGGCTTTATCACACATGAAAAAAAAAAAA [CACACA_site5155] | 8.14 ± 0.33 |
| TTATGTATTCATAACACATGCAAATAGGATCATATA [TGCATGCA_site731] | 8.99 ± 0.31 |
| ATATGATTTCACAAGACACACACATACAAATTTATA [CACACA_site9296] | 8.72 ± 0.4 |
| CACACGCACAGACACACACACACATATAAATATGTA [CACACA_site6300] | 8.73 ± 0.36 |
| AAAAAAAAAAAAAACACACACAAATTTAATATATAT [CACACA_site1695] | 8.45 ± 0.55 |
| TATATATATAACAACACACACAGATCATAAAACTGC [CACACA_site2161] | 9.07 ± 0.092 |
| TCCCAAGGAGTAGGCACACATAAAATATTATACATA [CACACA_site717] | 8.38 ± 0.5 |
| TATATTTATTTTAACACACACATATATATATTATAT [CACACA_site4729] | 8.62 ± 0.3 |
| AAAAAAAAAAAAAAAACACACACAAATTTAATATAT [CACACA_site8492] | 8.59 ± 0.29 |
| TACACCAAAAAAAAACGTACAAAATCCCACCCAGAC [XGTACX_site4622] | 9.51 ± 0.4 |
| AAAATTAAAGTAAGGACACACATATATAATACATAT [CACACA_site823] | 8.84 ± 0.35 |
| GTGTTCTTGTTATACACACACATATTTATATTTATA [CACACA_site6615] | 8.72 ± 0.26 |
| TAGTATCAATCTTATACATGCATAAAATAATTATAA [TGCATGCA_site1052] | 8.78 ± 0.36 |
| TTTATTTATATAATTACACACATATATACGCAAATG [CACACA_site2794] | 8.72 ± 0.47 |
| TAAGCCAAGGGATAAATAAAATAACAAAATGAAATC [GTGCAC_negctrl_site601] | 8.84 ± 0.42 |
| AAAGTATAGATGTATACACACACCAAACGTTAAAAA [CACACA_site3081] | 8.8 ± 0.67 |
| TCATTAATTAAATCTTGTACATATTCATATATATAT [XGTACX_site2241] | 9.385 ± 0.007 |
| TTTTATTCATTAATTTGTACTTATCCTTTTGCTTAA [XGTACX_site1243] | 8.69 ± 0.52 |
| AAATATATTATAAATTGTACGTTTATATATATTATT [XGTACX_site5110] | 8.29 ± 0.37 |

| Sequence | gcPBM binding intensity (ln) |
| --- | --- |
| TAAAGTTTTTTTTTAACACACACATAATAAAATAAA [CACACA_site8042] | 8.46 ± 0.51 |
| TAAAAAAATAAAAAAAAAAAATTATAAAATTATATA [GTGCAC_negctrl_site302] | 7.96 ± 0.49 |
| GACACATATAAATATTAACACACATAATGAATTATA [CACACA_site8881] | 8.47 ± 0.35 |
| TAACTAAGGAATAATACACACAGAAATATATATTTA [CACACA_site344] | 8.68 ± 0.41 |
| ACATTATGCCATAAATGTACACATACATATACACAG [XGTACX_site1330] | 8.73 ± 0.4 |
| GATGATGTTACTTAAGTGCATATAAATTATATTTTA [GTGCAC_site9940] | 8.46 ± 0.23 |
| TACTAACATAAAGACACACACCACATAAAATAAATA [CACACA_site7663] | 8.74 ± 0.42 |
| ATAGTATACAGACACACACACACACCGATATATATA [CACACA_site8511] | 8.78 ± 0.6 |
| GGAAGAAAACTTAGGTGTACATATAAAACGATATAA [XGTACX_site3118] | 8.87 ± 0.26 |
| TATGAACACAGACACACACACAAAAAAAAAAAAAAA [CACACA_site7037] | 8.14 ± 0.66 |
| CTTATTTTGTTATAAGTGCATTTTTTAAAATTTCTT | 8.95 ± 0.28 |
| TTTATGTGTATGTTTACACACATAAAAAAATATATG [CACACA_site3039] | 8.4 ± 0.34 |
| TATACCTTTGCGTGTGCATGCGCTTATATATATTTT [TGCATGCA_site152] | 9.6 ± 0.47 |
| ACAATTCCCGTATGATGTACTTTTTTCCACTTTTTC [XGTACX_site1811] | 8.97 ± 0.48 |
| TATTTTTAATATTTTGCATGCAGTATTTTATAAAAT [TGCATGCA_site250] | 10.1 ± 0.2 |
| TTTTTGTTATTATGTGTGCACATATATATATATATA | 10.3 ± 0.4 |
| TATGTTATTATTTGTACACACACATATATATCCTTG [CACACA_site5910] | 8.85 ± 0.3 |
| AACAAATATCCCAAAAGTACACATATAAAAAAAAAA [XGTACX_site4126] | 8.59 ± 0.35 |
| ATTATCTTATGTTATTTATTTGTCCCACATTTGTTA [TGCATGCA_negctrl_site402] | 8.86 ± 0.5 |
| CATACACCCAGACACACACACATATATATATATATA [CACACA_site634] | 10.1 ± 0.44 |
| TACCTAATATGTTATACACACATTAGAAGTACATAT [CACACA_site5375] | 8.41 ± 0.32 |
| ATAAAAAAAAAAAAAAAATATATATATATATATATA [XGTACX_negctrl_site424] | 10.2 ± 0.32 |

| Sequence | gcPBM binding intensity (ln) |
| --- | --- |
| TTTTAGGTCTGAATGTGTACTAAATAATATAAGTAT [XGTACX_site6554] | 8.43 ± 0.28 |
| TATATACTTTTTAATCACACTTCTTTAAAAAAAGTA [CACACA_negctrl_site1380] | 8.22 ± 0.071 |
| TTATTTTTATTATTTTGTATATATATTTATAGAAAA [XGTACX_negctrl_site465] | 8.52 ± 0.33 |
| TGTAATAACGTTATAAAAAGTATAAAAAAAAAAAAA [CACACA_negctrl_site943] | 8.38 ± 0.56 |
| ATCTATTTGTAAAGGGTGCGCATATCAATAAAAAAT [GTGCAC_site9503] | 9.55 ± 0.31 |
| GTATATAATTTTTTATGTACTAAATTATATGTTTTT [XGTACX_site4907] | 8.34 ± 0.28 |
| CACACAAAGGAATATACACACATATTTATATTTATA [CACACA_site7841] | 8.31 ± 0.55 |
| AATAAATAAATAAATTAATAAATTAATAAATTAATA [GTGCAC_negctrl_site37] | 7.84 ± 0.16 |
| CAAAATTTTTATAAGTCACACATTATCTAAGCTTAT [CACACA_site5747] | 8.46 ± 0.53 |
| CATATCTCAATTTATGCATGCAGGATTTTTCTAATA [TGCATGCA_site516] | 10.1 ± 0.18 |
| AATATGTACAGACATACACACATATATATATATATA [CACACA_site1222] | 10.1 ± 0.2 |
| ACACAAAAAAAAAAAAAAAAAAAAAAAAAAAAGGAA [CACACA_negctrl_site1162] | 8.02 ± 0.54 |
| TTTTTTTTTTTTTGGTGTACATTTATAAAAAAAAAA [XGTACX_site8368] | 8.36 ± 0.4 |
| ACATATAAGATTATGTGTCCACAAAAAAATAAAACA [XGTACX_site2867] | 8.69 ± 0.38 |
| TTTTTTTATTATTCTTATATAAAAATTTTTTTTAAT [CACACA_negctrl_site159] | 8.27 ± 0.45 |
| TTTTATGTTCTTAATGCACACTTATAAGTATCTTAT [CACACA_site4895] | 9.07 ± 0.21 |
| TTTTTAATAACACTTTTGAAAAATAAAATAAAATAA [CACACA_negctrl_site821] | 8.38 ± 0.28 |
| ATATAATTCAAATACAGTACATATACAATATATACA [XGTACX_site1191] | 8.21 ± 0.3 |
| ATATTATCATTTTTTTTAATGGAAAAAAAAAAAAAA [CACACA_negctrl_site1298] | 8.2 ± 0.61 |
| TTTTAAATTTAGTGTAGTACACTTTTTTCAAATATA [XGTACX_site4659] | 8.28 ± 0.32 |
| TACTTTTATAAAAATTTTATCAAATTCTATATATGT [TGCATGCA_negctrl_site308] | 8.35 ± 0.41 |
| TTATTCTTTTAATATACACACTTTGTCTTTTCGCGC [CACACA_site5525] | 8.48 ± 0.58 |

| Sequence | gcPBM binding intensity (ln) |
| --- | --- |
| ATATATATAAAAGAAACAACATTTATTCAAAAGGTA [CACACA_negctrl_site749] | 8.48 ± 0.55 |
| GCACCCTGTATGAATGCACACATTCATAGAATTGCT [CACACA_site5475] | 8.56 ± 0.29 |
| ATTCAAAAGATGTATACACACATGTGGATAATATAA [CACACA_site2443] | 8.96 ± 0.49 |
| TACATATTTATATACACACACACACGGATATTTATA [CACACA_site7239] | 8.94 ± 0.28 |
| TATTTTTCTTTTTAAAAATATATCACATGAACATTA [XGTACX_negctrl_site183] | 8.21 ± 0.43 |
| AATAACAAAATAGGCACACGCACATATATATATATA [CACACA_site1497] | 10.1 ± 0.38 |
| CCCCTTGTGGATTCTACACACAAAAAGTCGTCAAAA [CACACA_site821] | 8.95 ± 0.38 |
| TGATCAAATAAGTTTGCATGTCAACAATGCATATAT [TGCATGCA_site1025] | 8.75 ± 0.49 |
| GAATTCCTTTGTGTATGTACATAATGATATTATTTT [XGTACX_site7369] | 8.79 ± 0.38 |
| TAATTTTTTAAACACACACACATATATATATATATA [CACACA_site4230] | 10.2 ± 0.3 |
| TATATTTTCCTGCAAACACACATATAAATGGGTAGA [CACACA_site4451] | 8.49 ± 0.52 |
| TTTTTTTTTTTTGGTAGTACATAATATTAATATAAT [XGTACX_site4422] | 8.49 ± 0.42 |
| ATATACTCATTTAATACACACAAAGAGAAAATTAAT [CACACA_site1923] | 8.43 ± 0.3 |
| ATATATATATATATGGTGCATGAAAATTTACTTTGA | 10.1 ± 0.26 |
| GATATTTGTTCATATACACACTTTTGATAAAATATG [CACACA_site4807] | 8.71 ± 0.35 |
| ATAGTACAACAGGTTCTTGACAAACAATATGAATGT [GTGCAC_negctrl_site442] | 8.78 ± 0.49 |
| TAATTTTTTTTTTTTTTTCATTCTTTTCCTTTGATT [CACACA_negctrl_site1365] | 8.22 ± 0.62 |
| TTTATATAATTTTTTTGTACATATATATGAATACAT [XGTACX_site2316] | 8.75 ± 0.61 |
| TTTTGTTGTATGATAATTCTTTTATCAATATGTCTT [TGCATGCA_negctrl_site567] | 8.46 ± 0.33 |
| ACCAAATTATCAAATGGTACACATAAAATAATAAAA [XGTACX_site865] | 8.55 ± 0.32 |
| GTTTCTATTCACATTTTACACACGTCCATCGCATTT [CACACA_site9142] | 9.26 ± 0.47 |
| TAATTAACCTATGCATTCATATAGATACATAAATAT [CACACA_negctrl_site885] | 8.43 ± 0.4 |
